The whole screen tested about 120,000 compounds, of which about 5,300 (4.4%) were called active. The shares of active, inactive and inconclusive entries below differ from those in the screen. Calls follow the shape of the dose curve; as a rule, active = well fitted inhibition curve with a large enough effect; inconclusive = small, poorly fitted or top-dose-only effect; inactive = no such curve, though single readings can be large or run the other way. A potency beside an inconclusive call is a rough fit, not a confirmed value.
Assay: qHTS Primary assay for Inhibitors of Plasmodium falciparum Dd2 growth in vitro; also: nearly all actives have a fitted effect of over 65% in size;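 as to activity, negative = inhibition: plate controls were DMSO vehicle for no effect and reference drug for full effect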
Conditions: P. falciparum Dd2 growth, SYBR Green, 72 h; activity, negative = inhibition: at 28.9 µM (top of the series) unless noted; series mostly up to 28.9 µM
How it was run: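 Readout: SYBR Green fluorescence, 485 nm excitation, 535 nm emission, after ~16 h lysis at 37C. Before that, Dd2-infected red cells (2.5% hematocrit) grew 72 h with compound, 29 uM top final concentration.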
Potency is read from the fitted curve at half-maximal effect; tags tell the direction and shape of the fitted curve.

Structure (SMILES)	Potency	activity, negative = inhibition	outcome
CCN(C(=O)c1cnc(N2CCOCC2)c2ccccc12)c1cc(C)ccc1C	inconclusive: 11.2 µM [inhibitor, single point]		
CC(C)N(Cc1ccccc1)C(=O)CN1C(=O)COc2ccc(S(=O)(=O)N3CCCCCC3)cc21	inconclusive: 1 µM [inhibitor, partial curve, poor fit]		
Cc1cccc(CC(=O)N2CCC3(CCCCO3)CC2)c1		inactive: -1.2%	
O=C(NCCc1ccc(Cl)cc1)c1nc(-c2ccc(Cl)cc2Cl)c2ccccn12		inactive: -18.7%	
Cc1ccc(CNC(=O)N2CCC(Cc3noc(C4CCOCC4)n3)C2)cc1 (centres undefined)	inconclusive: 12.6 µM [inhibitor, single point]		
CC(C)CCN1CC(CN[S+](=O)([O-])c2ccccc2)C2(C1)CN(c1ccccc1)C2 (centres undefined)	inconclusive: 1.41 µM [inhibitor, partial curve, poor fit]		
CCN(CC)c1nc(-c2ccccc2Cl)c2cc(Br)ccc2n1	inconclusive: 17.8 µM [inhibitor, partial curve, poor fit]		
Cc1cc(Cl)ccc1OCC(=O)N(Cc1ccc(N(C)C)cc1)CC1CCCO1 (centres undefined)	inconclusive: 17.8 µM [inhibitor, single point]		
O=C(CSc1ncc2c(n1)-c1cc(Cl)ccc1N(Cc1ccccc1F)S2(=O)=O)Nc1cccc(C(F)(F)F)c1	inconclusive: 17.8 µM [inhibitor, single point]		
COC(=O)c1cc(NC(=O)c2ccc3c(c2)N(Cc2cccc(Cl)c2)C(=O)c2ccccc2S3=O)cc(C(=O)OC)c1 (centres undefined)	active: 3.16 µM		
O=c1c2nc(Nc3ccccc3)ccc2ncn1-c1ccccc1			inactive [at 44.1 µM]
CCOc1ccccc1NC(=O)c1cnc(N2CCOCC2)c2ccccc12	inconclusive: 17.8 µM [inhibitor, partial curve, poor fit]		
Cc1nnc2n1C(C)CN(C(=O)CCCn1cnc3ccccc3c1=O)C2 (centres undefined)		inactive: -10%	
CCOc1ccc(-c2nnc(SCC(=O)NCCc3ccccc3)nc2-c2ccc(OCC)cc2)cc1	inconclusive: 17.8 µM [inhibitor, single point]		
CC1CCC2(CC1)NC(=O)N(CC(=O)NCCC1=CCCCC1)C2=O (centres undefined)		inactive: -3.93%	
Cc1cccc(-n2nc(-c3c(C)nc4scc(CC(=O)N5CCCC5)n4c3=O)cc2C)c1		inactive: -4.96%	
COc1ncc(CN2CCc3c(n(Cc4cccnc4)n(-c4ccccc4)c3=O)C2)cn1		inactive: 39.3% [at 44.1 µM]	
CCN(CC)c1ccc(-c2nc(-c3ccco3)no2)cc1[N+](=O)[O-]	inconclusive: 12.6 µM [inhibitor, single point]		
O=C(c1ccc(C(F)(F)F)cc1)N1CCC2(CC1)CC(=O)N(c1ccccc1)c1ccccc1O2	inconclusive: 11.2 µM [inhibitor, single point]		

Reference: PubChem BioAssay AID1347417 (National Center for Advancing Translational Sciences (NCATS), 2020)
